From PubChem BioAssay AID2313 (Broad Institute, 2010)
Out of some 22,000 compounds screened, about 460 (2.1%) were called active. Inconclusive means that the source gave no clear call. Such entries were picked first, then a sample of the others.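 Rule for the calls: active = mean inhibition across valid replicates above about 65% (limit read from the data); inconclusive = mean under the limit, yet half or more replicates past it; inactive = the rest.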

Experiment: Shh-driven Gli reporter inhibition – luminescence, Shh-LIGHT2 cells, Gli-luciferase, primary screen (AID 2313);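 note: pathway switched on by Shh-conditioned medium diluted 1 in 25 in low serum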
Conditions: 30 h, hits give high values

Structure (SMILES) | inhibition
Cc1ccc(N2C(=O)/C(=C/C=C/c3ccccc3)SC2=S)cc1 | inactive: 24.3%
C[C@@H]1CN([C@@H](C)CO)C(=O)c2cccc(NC(=O)c3ccc(-c4nccs4)cc3)c2O[C@@H]1CN(C)Cc1ccc2c(c1)OCO2 | inconclusive: 32.6%
C[C@@H]1CN([C@H](C)CO)C(=O)c2cccc(NS(=O)(=O)c3cccs3)c2O[C@@H]1CN(C)Cc1ccc(Oc2ccccc2)cc1 | inactive: 15.8%
Cc1cc(-c2ccccc2)nc2c1/C(=N\O)CC(C)(C)C2 | inactive: -7.65%
COc1ccc(NC(=O)Nc2ccc3c(c2)CC(=O)N([C@H](C)CO)C[C@@H](C)[C@@H](CN(C)C(=O)Nc2ccc(F)cc2)O3)cc1 | inconclusive: 30.4%
C[C@H](CO)N1C[C@H](C)[C@H](CN(C)CC2CCCCC2)Oc2c(NC(=O)C3CC3)cccc2C1=O | inconclusive: 47.6%
CNC[C@H]1Oc2c(NS(C)(=O)=O)cccc2C(=O)N([C@H](C)CO)C[C@@H]1C | inconclusive: -6.36%
C[C@@H]1CN([C@H](C)CO)C(=O)c2cc(NC(=O)Nc3ccccc3)ccc2O[C@@H]1CN(C)C(=O)Nc1cccc2ccccc12 | inactive: 9.81%
O=C1CC(CSc2ccc(Cl)cc2)=NN1c1nc2ccccc2s1 | inconclusive: 37.6%
Cc1ccc(S(=O)(=O)Nc2cccc3c2O[C@@H](CN(C)Cc2ccc(Oc4ccccc4)cc2)[C@H](C)CN([C@@H](C)CO)C3=O)cc1 | inactive: 9.92%
COc1ccc(NC(=O)Nc2ccc3c(c2)CC(=O)N([C@H](C)CO)C[C@@H](C)[C@H](CN(C)Cc2ccc(C(=O)O)cc2)O3)cc1 | inconclusive: 39%
c1ccc(-c2ccc3c4ccccc4cc-3o2)cc1 | inactive: -3%
C=CCn1c(CCn2c3ccccc3c3ccccc32)n[nH]c1=S | inconclusive: 53%
Cc1cccc(NC(=O)/C=C/c2ccccc2)c1 | inactive: -135%
COc1ccc(S(=O)(=O)Nc2ccc3c(c2)C(=O)N([C@@H](C)CO)C[C@@H](C)[C@@H](CN(C)Cc2ccc(Cl)c(Cl)c2)O3)cc1 | inconclusive: 58.5%
N#CC1=C(N)Nc2c(c(=O)oc3ccccc23)C1c1ccc(Br)cc1 (configuration not stated) | active: 72.4%
CCn1c2c(c3cc(OCc4ccccc4)ccc31)CCCC2=O | active: 76.8%
CNC[C@H]1Oc2ccc(NC(=O)Nc3ccc(C(F)(F)F)cc3)cc2CC(=O)N([C@H](C)CO)C[C@H]1C | inactive: 8.48%
O=C(/C=C/Sc1ccccn1)c1ccccc1 | inconclusive: 11.5%
C[C@H]1CN([C@@H](C)CO)C(=O)Cc2cc(NC(=O)Cc3ccccc3)ccc2O[C@H]1CN(C)C(=O)Nc1ccc(C(F)(F)F)cc1 | inconclusive: 42.2%
CNC[C@H]1OCCCC[C@@H](C)Oc2ccc(NC(=O)CCC(F)(F)F)cc2C(=O)N([C@H](C)CO)C[C@@H]1C | inconclusive: 62.6%
C[C@@H]1CN([C@@H](C)CO)C(=O)c2cccc(NC(=O)C3CCOCC3)c2O[C@@H]1CN(C)S(=O)(=O)c1cn(C)cn1 | inconclusive: 31.6%
CC(C)NC(=O)Nc1ccc2c(c1)CC(=O)N([C@@H](C)CO)C[C@H](C)[C@@H](CN(C)C(=O)NC1CCCCC1)O2 | inconclusive: 25.3%

Structure (SMILES) | inhibition
C=C1C(=O)O[C@@H]2C3C(=C(C)[C@@H](O)[C@@H](OC(=O)/C(=C/C)COC(C)=O)[C@@H]12)C(=O)[C@H]1O[C@@]31C (some centres not stated) | active: 72.3%
Cc1noc(C)c1S(=O)(=O)Nc1ccc2c(c1)C(=O)N([C@H](C)CO)C[C@H](C)[C@@H](CN(C)S(=O)(=O)c1cccs1)O2 | inactive: -39.8%
COC(=O)C1=C(C)Nc2c(c(=O)n(C)c(=O)n2C)C1c1cccc(OCc2ccccc2)c1 (configuration not stated) | inconclusive: 28.7%
CC(=O)O[C@@H]1c2c(ccc3ccc(=O)oc23)OC(C)(C)[C@@H]1OC(=O)C=C(C)C | inactive: 18.5%
Cc1noc(C)c1NC(=O)Nc1cccc2c1O[C@H](CN(C)C(=O)Nc1cccc3ccccc13)[C@@H](C)CN([C@H](C)CO)C2=O | inconclusive: 38.2%
COc1ccc(-c2coc3cc(O)ccc3c2=O)c(OC)c1 | active: 80%
C[C@@H]1CN([C@@H](C)CO)C(=O)c2cccc(NC(=O)C3CCCCC3)c2O[C@H]1CN(C)C(=O)Nc1cccc2ccccc12 | inconclusive: 60.3%
Cc1ccc(S(C)(=O)=NC(=O)NC(=O)c2c(Cl)cccc2Cl)cc1 (configuration not stated) | inconclusive: 34.5%
C[C@H]1CN([C@@H](C)CO)C(=O)c2cccc(NC(=O)Nc3ccc(F)cc3)c2O[C@H]1CN(C)Cc1ccc(C(=O)O)cc1 | inactive: 16.3%
COc1cc(O)cc(OC)c1OC | inconclusive: 60.6%
Cc1ccc(S(=O)(=O)N(C)C[C@@H]2Oc3c(NC(=O)Nc4ccc5c(c4)OCO5)cccc3C(=O)N([C@H](C)CO)C[C@H]2C)cc1 | inactive: 9.57%
COc1ccc(CN(C)C[C@@H]2Oc3ccc(NS(=O)(=O)c4cccs4)cc3C(=O)N([C@@H](C)CO)C[C@H]2C)cc1 | inactive: 11.2%
O=C(/C=C/c1ccc(Cl)cc1)Nc1cccc(Cl)c1 | inconclusive: 35.9%
CS/C(N)=N/C(N)=Nc1ccc(Cl)cc1 | inactive: 4.52%
Fc1cccc(Cl)c1CSc1ccccc1C1=NCCCN1 | inactive: -4.53%
C[C@@H]1CCCCO[C@@H](CN(C)Cc2ccncc2)[C@@H](C)CN([C@H](C)CO)C(=O)c2cc(NS(=O)(=O)c3cccs3)ccc2O1 | inconclusive: 38.1%
O=C(O)CCC1OC(=O)C(=O)C1c1ccccc1 (configuration not stated) | inconclusive: 51.3%
COc1ccc(CN(C)C[C@H]2OCCCC[C@@H](C)Oc3ccc(NC(=O)c4ccncc4)cc3C(=O)N([C@H](C)CO)C[C@@H]2C)cc1 | inactive: -7.34%
Cc1cc(C)c2c(c1C(=O)Nc1cccc(C(F)(F)F)c1)CC(C)(C)C2=O | active: 86.2%
C[C@H]1CN([C@@H](C)CO)C(=O)c2cccc(NC(=O)c3ccncc3)c2O[C@@H]1CN(C)Cc1ccc(C(F)(F)F)cc1 | inconclusive: 3.89%
C[C@@H]1O[C@@H](O[C@H]2[C@@H](Oc3cc(O)c4c(c3)O[C@H](c3ccc(O)cc3)CC4=O)O[C@H](CO)[C@@H](O)[C@@H]2O)[C@H](O)[C@H](O)[C@H]1O | inactive: -8.61%
CC(=O)O[C@H]1[C@H](Oc2ccccc2COC(=O)C2(O)C=CCCC2=O)O[C@H](COC(=O)C2(O)C=CCCC2=O)[C@@H](O)[C@@H]1O (some centres not stated) | inconclusive: 44.7%
C[C@H]1CN([C@@H](C)CO)C(=O)c2cccc(NS(=O)(=O)c3ccccc3)c2O[C@@H]1CN(C)Cc1ccccc1 | inconclusive: 59.8%

Structure (SMILES) | inhibition
C[C@@H]1CC[C@]2(C(=O)O)CC[C@]3(C(=O)O)C(=CCC4[C@@]5(C)CC[C@H](O[C@@H]6O[C@H](C)[C@H](O)[C@H](O)[C@H]6O)C(C)(C)C5CC[C@]43C)C2[C@H]1C (some centres not stated) | inconclusive: 60%
CC(N=Cc1c(O)ccc2ccccc12)C12CC3CC(CC(C3)C1)C2 (configuration not stated) | inconclusive: 31%
OC(CCN1CCCC1)(c1ccccc1)C1CCCCC1 (configuration not stated) | inconclusive: 51.6%
C[C@@H]1CN([C@H](C)CO)C(=O)Cc2cc(NC(=O)Nc3ccc4c(c3)OCO4)ccc2O[C@H]1CN(C)Cc1ccc(Oc2ccccc2)cc1 | inconclusive: 34.8%
C[C@H]1CN([C@@H](C)CO)C(=O)c2cc(N(C)C)ccc2O[C@@H]1CN(C)S(=O)(=O)c1ccc(F)cc1 | inactive: 10.4%
O=C(O)c1ccc(Oc2ccccc2)cc1 | inactive: -22.4%
C=C(C(=O)O)[C@@H]1CC[C@H](C)[C@@H]2CC(=O)C(C)=C2C1 | inactive: 7.81%
C[C@@H]1CN([C@H](C)CO)C(=O)c2cc(N(C)C)ccc2O[C@@H]1CN(C)C(=O)NC1CCCCC1 | inactive: 7.68%
O=C(Oc1ccc(C2SCCS2)cc1)c1cccc(C(F)(F)F)c1 | inconclusive: 55.4%
O=C(NCc1ccc2c(c1)OCO2)c1ccc2c(=O)n(Cc3ccccc3)c(=S)[nH]c2c1 | inconclusive: 63.6%
O=S(=O)(c1ccc(Cl)cc1)N1CCc2ccccc21 | active: 80.9%
CC(=O)OCC1(C)CC2[C@]3(CO[C@@]24CCC2[C@@]5(C)CC[C@H](O[C@@H]6OC[C@@H](O)[C@H](O)[C@H]6O)[C@@](C)(CO)C5CC[C@@]2(C)[C@]4(C)C[C@H]3O)[C@@H](O)C1 (some centres not stated) | active: 76%
Cc1ccc(S(=O)(=O)Nc2ccc3c(c2)CC(=O)N([C@@H](C)CO)C[C@H](C)[C@@H](CN(C)Cc2ccc(Cl)c(Cl)c2)O3)cc1 | inconclusive: 57.4%
CC(C)Sc1nc(-c2cccs2)cc(C(F)(F)F)c1C#N | inconclusive: 36.7%
N#CC(C#N)=C(Nc1ccccc1Cl)SCc1cccc(F)c1 | active: 112%
CSc1sc(Cl)c2c1/C(=N\O)CC(C)(C)C2 | inconclusive: 50.7%
COc1ccc(NC(=O)Nc2ccc3c(c2)CC(=O)N([C@H](C)CO)C[C@@H](C)[C@@H](CN(C)Cc2ccc(Oc4ccccc4)cc2)O3)cc1 | inconclusive: 55.8%
CCn1c(C)[n+](CC)c2ccccc21 | inactive: -15.5%
C[C@H](CO)N1C[C@H](C)[C@H](CN(C)C)Oc2c(NC(=O)C3CCOCC3)cccc2C1=O | inconclusive: 10.4%
C[C@H](CO)N1C[C@H](C)[C@H](CN(C)Cc2ccc(-c3ccccc3)cc2)Oc2ccc(NC(=O)c3ccncc3)cc2CC1=O | inconclusive: 33.5%
Cc1ccc(S(=O)(=O)Nc2cccc3c2O[C@@H](CN(C)S(=O)(=O)c2c(C)noc2C)[C@@H](C)CN([C@H](C)CO)C3=O)cc1 | inactive: -7.42%
